# Measured values published in the supplement of paper PMC8728848.
# The list shows a part of the results.
# B1: FaeGab (Escherichia coli) (protein)
# chain: WMTGDFNGSVDIGGSITADDYRQKWEWKVGTGLNGFGNVLNDLTNGGTKLTITVTGNKPILLGRTKEAFATPVSGGVDGIPQIAFTDYEGASVKLRNTDGETNKGLAYFVLPMKNAEGTKVGSVKVNASYAGVFGKGGVTSADGELFSLFADGLRAIFYGGLTTTVSGAALTSGSAAAARTELFGSLSRNDILGQIQRVNANITSLVDVAGSYREDMEYTDGTVVSAAYALGIANGQTIEATFNQAVTTSTQWSAPLNVAITYY
# Assays:
# Assay in all cases: glycan array binding signal (z-score within array); higher = stronger binding
# Conditions in all cases: glycan notation: IUPAC condensed, linker removed
# [1] = biological target: Neu5Ac(a2-3)Gal(b1-3)GalNAc(b1-3)Gal(b1-4)GlcNAc
# In short: (§1)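 The binding signal is a Z-score computed within each array. Data were drawn from 3228 arrays in the Consortium for Functional Glycomics database, restricted to those with a known protein sequence. Scores were averaged over arrays of the same protein sequence at different concentrations or buffers, and over linkers, and negative values can be taken as non-binding.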
# [2] = biological target: Neu5Ac(a2-3)Gal(b1-3)GalNAc(b1-4)[Neu5Ac(a2-3)]Gal(b1-4)Glc
# In short: as §1
# [3] = biological target: Neu5Ac(a2-3)Gal(b1-3)GalNAc6S
# In short: as §1
# [4] = biological target: Neu5Ac(a2-3)Gal(b1-3)GlcNAc
# In short: as §1
# [5] = biological target: Neu5Ac(a2-3)Gal(b1-3)GlcNAc6S
# In short: as §1
# [6] = biological target: Neu5Ac(a2-3)Gal(b1-3)[Fuc(a1-4)]GlcNAc
# In short: as §1
# [7] = biological target: Neu5Ac(a2-3)Gal(b1-3)[Fuc(a1-4)]GlcNAc(b1-3)Gal(b1-4)[Fuc(a1-3)]GlcNAc
# In short: as §1
# [8] = biological target: Neu5Ac(a2-3)Gal(b1-3)[Neu5Ac(a2-3)Gal(b1-4)]GlcNAc
# In short: as §1
# [9] = biological target: Neu5Ac(a2-3)Gal(b1-3)[Neu5Ac(a2-6)]GalNAc
# In short: as §1
# Neu5Ac(a2-3)Gal(b1-4)Glc = biological target: Neu5Ac(a2-3)Gal(b1-4)Glc
# In short: as §1
# [10] = biological target: Neu5Ac(a2-3)Gal(b1-4)GlcNAc
# In short: as §1
# [11] = biological target: Neu5Ac(a2-3)Gal(b1-4)GlcNAc(b1-2)Man(a1-3)[Neu5Ac(a2-3)Gal(b1-4)GlcNAc(b1-2)Man(a1-6)]Man(b1-4)GlcNAc(b1-4)GlcNAc
# In short: as §1
# [12] = biological target: Neu5Ac(a2-3)Gal(b1-4)GlcNAc(b1-3)Gal(b1-4)GlcNAc
# In short: as §1
# [13] = biological target: Neu5Ac(a2-3)Gal(b1-4)GlcNAc(b1-3)Gal(b1-4)GlcNAc(b1-3)Gal(b1-4)GlcNAc
# In short: as §1
# [14] = biological target: Neu5Ac(a2-3)Gal(b1-4)GlcNAc(b1-3)Gal(b1-4)[Fuc(a1-3)]GlcNAc
# In short: as §1
# [15] = biological target: Neu5Ac(a2-3)Gal(b1-4)GlcNAc6S
# In short: as §1
# [16] = biological target: Neu5Ac(a2-3)Gal(b1-4)[Fuc(a1-3)]GlcNAc
# In short: as §1
# [17] = biological target: Neu5Ac(a2-3)Gal(b1-4)[Fuc(a1-3)]GlcNAc(b1-3)Gal
# In short: as §1
# [18] = biological target: Neu5Ac(a2-3)Gal(b1-4)[Fuc(a1-3)]GlcNAc(b1-3)Gal(b1-4)GlcNAc
# In short: as §1
# [19] = biological target: Neu5Ac(a2-3)Gal(b1-4)[Fuc(a1-3)]GlcNAc(b1-3)Gal(b1-4)[Fuc(a1-3)]GlcNAc(b1-3)Gal(b1-4)[Fuc(a1-3)]GlcNAc
# In short: as §1
# [20] = biological target: Neu5Ac(a2-3)Gal(b1-4)[Fuc(a1-3)]GlcNAc6S
# In short: as §1
# [21] = biological target: Neu5Ac(a2-3)Gal6S(b1-4)GlcNAc
# In short: as §1
# [22] = biological target: Neu5Ac(a2-3)Gal6S(b1-4)[Fuc(a1-3)]GlcNAc
# In short: as §1
# Neu5Ac(a2-3)GalNAc = biological target: Neu5Ac(a2-3)GalNAc
# In short: as §1
# [23] = biological target: Neu5Ac(a2-3)GalNAc(b1-4)GlcNAc
# In short: as §1
# [24] = biological target: Neu5Ac(a2-3)[GalNAc(b1-4)]Gal(b1-4)Glc
# In short: as §1
# [25] = biological target: Neu5Ac(a2-3)[GalNAc(b1-4)]Gal(b1-4)GlcNAc
# In short: as §1
# [26] = biological target: Neu5Ac(a2-3)[Neu5Ac(a2-6)]GalNAc
# In short: as §1
# Neu5Ac(a2-6)Gal = biological target: Neu5Ac(a2-6)Gal
# In short: as §1
# Neu5Ac(a2-6)Gal(b1-4)Glc = biological target: Neu5Ac(a2-6)Gal(b1-4)Glc
# In short: as §1
# [27] = biological target: Neu5Ac(a2-6)Gal(b1-4)GlcNAc
# In short: as §1
# [28] = biological target: Neu5Ac(a2-6)Gal(b1-4)GlcNAc(b1-3)Gal(b1-4)GlcNAc
# In short: as §1
# [29] = biological target: Neu5Ac(a2-6)Gal(b1-4)GlcNAc(b1-3)Gal(b1-4)[Fuc(a1-3)]GlcNAc(b1-3)Gal(b1-4)[Fuc(a1-3)]GlcNAc
# In short: as §1
# [30] = biological target: Neu5Ac(a2-6)Gal(b1-4)GlcNAc6S
# In short: as §1
# Neu5Ac(a2-6)GalNAc = biological target: Neu5Ac(a2-6)GalNAc
# In short: as §1
# [31] = biological target: Neu5Ac(a2-6)GalNAc(b1-4)GlcNAc
# In short: as §1
# Neu5Ac(a2-8)Neu5Ac = biological target: Neu5Ac(a2-8)Neu5Ac
# In short: as §1
# [32] = biological target: Neu5Ac(a2-8)Neu5Ac(a2-3)Gal(b1-4)Glc
# In short: as §1
binder,measurement,setting,value
B1,glycan array binding signal (z-score),[1],-0.486
same,glycan array binding signal (z-score),[2],-0.435
same,glycan array binding signal (z-score),[3],-0.441
same,glycan array binding signal (z-score),[4],-0.476
same,glycan array binding signal (z-score),[5],-0.218
same,glycan array binding signal (z-score),[6],-0.431
same,glycan array binding signal (z-score),[7],0.808
same,glycan array binding signal (z-score),[8],-0.529
same,glycan array binding signal (z-score),[9],-0.403
same,glycan array binding signal (z-score),Neu5Ac(a2-3)Gal(b1-4)Glc,-0.397
same,glycan array binding signal (z-score),[10],-0.399
same,glycan array binding signal (z-score),[11],0.621
same,glycan array binding signal (z-score),[12],-0.483
same,glycan array binding signal (z-score),[13],-0.511
same,glycan array binding signal (z-score),[14],0.134
same,glycan array binding signal (z-score),[15],-0.446
same,glycan array binding signal (z-score),[16],-0.476
same,glycan array binding signal (z-score),[17],-0.337
same,glycan array binding signal (z-score),[18],-0.364
same,glycan array binding signal (z-score),[19],-0.196
same,glycan array binding signal (z-score),[20],-0.299
same,glycan array binding signal (z-score),[21],0.755
same,glycan array binding signal (z-score),[22],-0.268
same,glycan array binding signal (z-score),Neu5Ac(a2-3)GalNAc,-0.472
same,glycan array binding signal (z-score),[23],-0.36
same,glycan array binding signal (z-score),[24],-0.508
same,glycan array binding signal (z-score),[25],-0.344
same,glycan array binding signal (z-score),[26],-0.489
same,glycan array binding signal (z-score),Neu5Ac(a2-6)Gal,-0.488
same,glycan array binding signal (z-score),Neu5Ac(a2-6)Gal(b1-4)Glc,-0.411
same,glycan array binding signal (z-score),[27],-0.473
same,glycan array binding signal (z-score),[28],-0.305
same,glycan array binding signal (z-score),[29],-0.433
same,glycan array binding signal (z-score),[30],-0.427
same,glycan array binding signal (z-score),Neu5Ac(a2-6)GalNAc,-0.095
same,glycan array binding signal (z-score),[31],-0.38
same,glycan array binding signal (z-score),Neu5Ac(a2-8)Neu5Ac,-0.361
same,glycan array binding signal (z-score),[32],-0.336
